# These are yes or no findings as the source states them, for the method shown. Binding seen in cells or lysates may run through a third protein. Some binding calls cover weakened binding; strength is not graded here. Where a sequence is shown, tags or fusion partners need not be part of it.
# T1: GST-CHMP4B (UniProt Q9H444)
# T1 sequence: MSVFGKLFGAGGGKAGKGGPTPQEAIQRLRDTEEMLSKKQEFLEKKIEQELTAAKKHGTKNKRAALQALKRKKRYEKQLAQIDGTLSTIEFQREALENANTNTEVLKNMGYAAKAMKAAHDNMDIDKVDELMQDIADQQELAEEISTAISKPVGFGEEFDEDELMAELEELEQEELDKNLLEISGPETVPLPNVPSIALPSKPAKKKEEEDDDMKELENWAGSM
# T2: GST-CC2D1B residues 528–594 (human) (UniProt Q5T0F9)
# T2 sequence: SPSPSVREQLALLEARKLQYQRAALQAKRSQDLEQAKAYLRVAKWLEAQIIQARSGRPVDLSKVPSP
# T3: GST-CC2D1B (human) (UniProt Q5T0F9)
# T3 sequence: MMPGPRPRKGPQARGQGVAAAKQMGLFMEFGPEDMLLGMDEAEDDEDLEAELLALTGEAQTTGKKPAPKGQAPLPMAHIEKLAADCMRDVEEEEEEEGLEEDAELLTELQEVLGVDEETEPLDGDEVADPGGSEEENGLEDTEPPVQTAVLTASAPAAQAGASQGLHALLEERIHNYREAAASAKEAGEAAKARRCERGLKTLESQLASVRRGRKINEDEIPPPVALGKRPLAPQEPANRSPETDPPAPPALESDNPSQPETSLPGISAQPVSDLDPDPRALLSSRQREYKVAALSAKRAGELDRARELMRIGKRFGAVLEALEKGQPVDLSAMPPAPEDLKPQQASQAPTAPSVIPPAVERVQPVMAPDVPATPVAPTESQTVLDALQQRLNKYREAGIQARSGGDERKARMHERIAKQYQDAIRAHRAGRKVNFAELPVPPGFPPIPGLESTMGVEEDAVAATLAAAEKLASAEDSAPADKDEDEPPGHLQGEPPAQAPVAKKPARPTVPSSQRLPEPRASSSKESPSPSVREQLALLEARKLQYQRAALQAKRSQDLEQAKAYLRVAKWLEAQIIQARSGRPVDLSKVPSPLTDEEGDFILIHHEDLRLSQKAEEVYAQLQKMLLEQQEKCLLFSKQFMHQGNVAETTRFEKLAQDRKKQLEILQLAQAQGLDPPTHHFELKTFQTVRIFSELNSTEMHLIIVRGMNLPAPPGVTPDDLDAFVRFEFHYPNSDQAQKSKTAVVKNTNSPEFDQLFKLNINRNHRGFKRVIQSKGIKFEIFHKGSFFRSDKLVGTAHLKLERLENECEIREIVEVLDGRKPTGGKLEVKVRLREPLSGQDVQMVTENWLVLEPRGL
# T4: GST-CHMP7 (UniProt Q8WUX9)
# T4 sequence: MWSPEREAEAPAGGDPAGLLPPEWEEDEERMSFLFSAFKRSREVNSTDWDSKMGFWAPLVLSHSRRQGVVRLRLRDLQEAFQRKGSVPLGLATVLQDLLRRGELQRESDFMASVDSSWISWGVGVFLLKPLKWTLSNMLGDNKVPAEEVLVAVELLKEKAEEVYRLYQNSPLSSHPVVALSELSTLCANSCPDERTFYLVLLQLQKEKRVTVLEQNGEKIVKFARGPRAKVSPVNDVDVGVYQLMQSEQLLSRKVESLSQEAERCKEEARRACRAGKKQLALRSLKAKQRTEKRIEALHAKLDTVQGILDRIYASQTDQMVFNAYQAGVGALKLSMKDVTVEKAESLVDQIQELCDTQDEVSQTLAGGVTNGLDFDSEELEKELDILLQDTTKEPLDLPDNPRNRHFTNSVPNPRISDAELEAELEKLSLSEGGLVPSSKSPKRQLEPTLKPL
# Assays:
# GST-CHMP4B [1] = target: T1, GST-CHMP4B; test: pull-down; GST pull-down from cells co-expressing three proteins: GST-CHMP4B, HA-CHMP7 and YFP-CC2D1B
# [2] = target: T2, GST-CC2D1B residues 528–594 (human); test: pull-down; GST pull-down from lysates of 293T cells co-transfected with a pCAG-GST construct and a pCR3.1 HA-tagged construct; glutathione-sepharose beads 3 h at 4°C; 50 mM Tris pH 7.4, 150 mM NaCl, 5 mM EDTA, 5% glycerol, 1% Triton X-100 (wash 0.1%); western blot
# GST-CC2D1B (human) = target: T3, GST-CC2D1B (human); test: as above
# GST-CHMP7 = target: T4, GST-CHMP7; test: as above
# GST-CHMP4B [3] = target: T1, GST-CHMP4B; test: as above
binder,measurement,setting,value
"HA-CHMP7 full-length (protein, UniProt Q8WUX9 1-453) MWSPEREAEAPAGGDPAGLLPPEWEEDEERMSFLFSAFKRSREVNSTDWDSKMGFWAPLVLSHSRRQGVVRLRLRDLQEAFQRKGSVPLGLATVLQDLLRRGELQRESDFMASVDSSWISWGVGVFLLKPLKWTLSNMLGDNKVPAEEVLVAVELLKEKAEEVYRLYQNSPLSSHPVVALSELSTLCANSCPDERTFYLVLLQLQKEKRVTVLEQNGEKIVKFARGPRAKVSPVNDVDVGVYQLMQSEQLLSRKVESLSQEAERCKEEARRACRAGKKQLALRSLKAKQRTEKRIEALHAKLDTVQGILDRIYASQTDQMVFNAYQAGVGALKLSMKDVTVEKAESLVDQIQELCDTQDEVSQTLAGGVTNGLDFDSEELEKELDILLQDTTKEPLDLPDNPRNRHFTNSVPNPRISDAELEAELEKLSLSEGGLVPSSKSPKRQLEPTLKPL",binding,GST-CHMP4B [1],binds
same,binding,[2],binds
same,binding,GST-CC2D1B (human),binds
"HA-CHMP4B (protein, UniProt Q9H444 1-224) MSVFGKLFGAGGGKAGKGGPTPQEAIQRLRDTEEMLSKKQEFLEKKIEQELTAAKKHGTKNKRAALQALKRKKRYEKQLAQIDGTLSTIEFQREALENANTNTEVLKNMGYAAKAMKAAHDNMDIDKVDELMQDIADQQELAEEISTAISKPVGFGEEFDEDELMAELEELEQEELDKNLLEISGPETVPLPNVPSIALPSKPAKKKEEEDDDMKELENWAGSM",binding,GST-CC2D1B (human),binds
"HA-CHMP7 Ct (residues 238–453) (domain or fragment, UniProt Q8WUX9 238-453) DVGVYQLMQSEQLLSRKVESLSQEAERCKEEARRACRAGKKQLALRSLKAKQRTEKRIEALHAKLDTVQGILDRIYASQTDQMVFNAYQAGVGALKLSMKDVTVEKAESLVDQIQELCDTQDEVSQTLAGGVTNGLDFDSEELEKELDILLQDTTKEPLDLPDNPRNRHFTNSVPNPRISDAELEAELEKLSLSEGGLVPSSKSPKRQLEPTLKPL",binding,GST-CC2D1B (human),binds
"YFP-CC2D1B (protein, UniProt Q5T0F9 1-858) MMPGPRPRKGPQARGQGVAAAKQMGLFMEFGPEDMLLGMDEAEDDEDLEAELLALTGEAQTTGKKPAPKGQAPLPMAHIEKLAADCMRDVEEEEEEEGLEEDAELLTELQEVLGVDEETEPLDGDEVADPGGSEEENGLEDTEPPVQTAVLTASAPAAQAGASQGLHALLEERIHNYREAAASAKEAGEAAKARRCERGLKTLESQLASVRRGRKINEDEIPPPVALGKRPLAPQEPANRSPETDPPAPPALESDNPSQPETSLPGISAQPVSDLDPDPRALLSSRQREYKVAALSAKRAGELDRARELMRIGKRFGAVLEALEKGQPVDLSAMPPAPEDLKPQQASQAPTAPSVIPPAVERVQPVMAPDVPATPVAPTESQTVLDALQQRLNKYREAGIQARSGGDERKARMHERIAKQYQDAIRAHRAGRKVNFAELPVPPGFPPIPGLESTMGVEEDAVAATLAAAEKLASAEDSAPADKDEDEPPGHLQGEPPAQAPVAKKPARPTVPSSQRLPEPRASSSKESPSPSVREQLALLEARKLQYQRAALQAKRSQDLEQAKAYLRVAKWLEAQIIQARSGRPVDLSKVPSPLTDEEGDFILIHHEDLRLSQKAEEVYAQLQKMLLEQQEKCLLFSKQFMHQGNVAETTRFEKLAQDRKKQLEILQLAQAQGLDPPTHHFELKTFQTVRIFSELNSTEMHLIIVRGMNLPAPPGVTPDDLDAFVRFEFHYPNSDQAQKSKTAVVKNTNSPEFDQLFKLNINRNHRGFKRVIQSKGIKFEIFHKGSFFRSDKLVGTAHLKLERLENECEIREIVEVLDGRKPTGGKLEVKVRLREPLSGQDVQMVTENWLVLEPRGL",binding,GST-CHMP4B [1],binds
"HA-CC2D1B residues 162-594 (domain or fragment, UniProt Q5T0F9 162-594) ASQGLHALLEERIHNYREAAASAKEAGEAAKARRCERGLKTLESQLASVRRGRKINEDEIPPPVALGKRPLAPQEPANRSPETDPPAPPALESDNPSQPETSLPGISAQPVSDLDPDPRALLSSRQREYKVAALSAKRAGELDRARELMRIGKRFGAVLEALEKGQPVDLSAMPPAPEDLKPQQASQAPTAPSVIPPAVERVQPVMAPDVPATPVAPTESQTVLDALQQRLNKYREAGIQARSGGDERKARMHERIAKQYQDAIRAHRAGRKVNFAELPVPPGFPPIPGLESTMGVEEDAVAATLAAAEKLASAEDSAPADKDEDEPPGHLQGEPPAQAPVAKKPARPTVPSSQRLPEPRASSSKESPSPSVREQLALLEARKLQYQRAALQAKRSQDLEQAKAYLRVAKWLEAQIIQARSGRPVDLSKVPSP",binding,GST-CHMP7,binds
same,binding,GST-CHMP4B [3],binds
"HA-CC2D1B residues 162–493 (domain or fragment, UniProt Q5T0F9 162-493) ASQGLHALLEERIHNYREAAASAKEAGEAAKARRCERGLKTLESQLASVRRGRKINEDEIPPPVALGKRPLAPQEPANRSPETDPPAPPALESDNPSQPETSLPGISAQPVSDLDPDPRALLSSRQREYKVAALSAKRAGELDRARELMRIGKRFGAVLEALEKGQPVDLSAMPPAPEDLKPQQASQAPTAPSVIPPAVERVQPVMAPDVPATPVAPTESQTVLDALQQRLNKYREAGIQARSGGDERKARMHERIAKQYQDAIRAHRAGRKVNFAELPVPPGFPPIPGLESTMGVEEDAVAATLAAAEKLASAEDSAPADKDEDEPPGHLQ",binding,GST-CHMP7,no binding
same,binding,GST-CHMP4B [3],binds
"HA-CHMP3 (protein, UniProt Q9Y3E7 1-222) MGLFGKTQEKPPKELVNEWSLKIRKEMRVVDRQIRDIQREEEKVKRSVKDAAKKGQKDVCIVLAKEMIRSRKAVSKLYASKAHMNSVLMGMKNQLAVLRVAGSLQKSTEVMKAMQSLVKIPEIQATMRELSKEMMKAGIIEEMLEDTFESMDDQEEMEEEAEMEIDRILFEITAGALGKAPSKVTDALPEPEPPGAMAASEDEEEEEEALEAMQSRLATLRS",binding,GST-CC2D1B (human),no binding
"HA-CHMP7 Nt (residues 1–238) (domain or fragment, UniProt Q8WUX9 1-238) MWSPEREAEAPAGGDPAGLLPPEWEEDEERMSFLFSAFKRSREVNSTDWDSKMGFWAPLVLSHSRRQGVVRLRLRDLQEAFQRKGSVPLGLATVLQDLLRRGELQRESDFMASVDSSWISWGVGVFLLKPLKWTLSNMLGDNKVPAEEVLVAVELLKEKAEEVYRLYQNSPLSSHPVVALSELSTLCANSCPDERTFYLVLLQLQKEKRVTVLEQNGEKIVKFARGPRAKVSPVNDVD",binding,GST-CC2D1B (human),no binding
